Consider 86 compounds from PMC4336329 (PLoS ONE, 2015).

The campaign covered roughly 310,000 compounds. About 14,000 (4.5%) showed an effect of 50% or more. The effect is printed as a negative number. Some of the results follow.
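Also: peak tail current of the secondary pulse compared with the same well before compound.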

The target in the test is human ether-à-go-go-related gene (hERG) potassium channel (human, UniProt Q12809). The experiment in a line: primary screen, population patch clamp on CHO cells stably expressing hERG.
Sequence of human ether-à-go-go-related gene (hERG) potassium channel (Q12809 whole entry, looked up): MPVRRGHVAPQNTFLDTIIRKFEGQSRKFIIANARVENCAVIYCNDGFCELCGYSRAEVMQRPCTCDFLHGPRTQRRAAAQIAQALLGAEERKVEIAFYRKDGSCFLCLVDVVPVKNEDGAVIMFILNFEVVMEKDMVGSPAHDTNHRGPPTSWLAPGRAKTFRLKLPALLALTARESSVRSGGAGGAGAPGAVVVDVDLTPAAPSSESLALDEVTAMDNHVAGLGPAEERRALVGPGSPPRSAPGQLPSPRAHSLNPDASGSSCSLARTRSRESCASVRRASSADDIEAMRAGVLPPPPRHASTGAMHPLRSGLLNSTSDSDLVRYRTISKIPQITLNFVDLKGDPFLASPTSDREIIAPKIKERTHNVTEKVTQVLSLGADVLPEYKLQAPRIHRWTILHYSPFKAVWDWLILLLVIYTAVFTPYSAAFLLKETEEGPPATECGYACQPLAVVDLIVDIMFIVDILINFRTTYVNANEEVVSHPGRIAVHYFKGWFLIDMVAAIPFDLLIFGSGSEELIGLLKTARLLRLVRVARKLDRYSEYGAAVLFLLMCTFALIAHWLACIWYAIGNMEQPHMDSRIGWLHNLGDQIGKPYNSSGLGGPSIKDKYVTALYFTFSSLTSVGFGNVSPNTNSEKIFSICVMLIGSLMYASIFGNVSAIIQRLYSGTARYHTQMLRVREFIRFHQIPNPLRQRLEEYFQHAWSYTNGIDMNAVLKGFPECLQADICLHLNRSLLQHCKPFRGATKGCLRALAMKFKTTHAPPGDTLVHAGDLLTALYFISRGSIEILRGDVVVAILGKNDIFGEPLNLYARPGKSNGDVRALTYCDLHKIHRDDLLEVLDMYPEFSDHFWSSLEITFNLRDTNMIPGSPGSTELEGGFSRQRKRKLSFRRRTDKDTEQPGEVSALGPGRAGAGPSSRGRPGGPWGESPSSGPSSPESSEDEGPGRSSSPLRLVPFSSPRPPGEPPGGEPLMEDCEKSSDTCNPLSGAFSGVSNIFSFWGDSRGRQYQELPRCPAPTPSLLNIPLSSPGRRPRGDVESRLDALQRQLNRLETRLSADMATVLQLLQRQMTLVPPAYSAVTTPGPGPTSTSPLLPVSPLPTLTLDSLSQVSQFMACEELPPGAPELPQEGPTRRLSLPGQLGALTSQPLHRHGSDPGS
Turning to `COc1ccc(CCN2C(=O)CC(NCCc3ccc(S(N)(=O)=O)cc3)C2=O)cc1OC` (centres unmarked), the “hERG current change (%, negative = inhibition) at 10uM” value was found to be 13.7%. For `Cc1ccc(S(=O)(=O)N2[C@@H](c3ccc(Cl)cc3)C(C(=O)O)=CC[C@H]2c2cccc(C)c2)cc1` the value was 2.46%; for `O=C(Cc1ccc(-n2cccc2)cc1)NCc1cccs1`, 1.83%. For `O=C(NCCCn1ccnc1)/C(=C\c1cccs1)NC(=O)c1ccccc1` the value was -69%; for `CC(=O)Oc1ccccc1C1OC(=O)c2ccccc2N1C(C)=O` (centres unmarked), 0.0531%; for `C/C(=N\NC(=S)NC1CCCCC1)c1ccc(O)cc1`, -29.4%.

`Cc1ccc(N2C(=O)CC(Nc3cccc4ccccc34)C2=O)cc1` (centres unmarked): the “hERG current change (%, negative = inhibition) at 10uM” value is on record as 27.6%. For the compound `CCC1CSC(Nc2ccc(C(=O)/C=C/c3ccc(Br)cc3)cc2)=N1` (centres unmarked), the “hERG current change (%, negative = inhibition) at 10uM” value was determined as 0.372%.

For the compound `CCN(CC)C(=O)Cn1nnc(-c2ccc(S(C)(=O)=O)cc2)n1`, the “hERG current change (%, negative = inhibition) at 10uM” value amounted to 13.6%. As to `Cc1ccc2nc(-c3ccncc3)c(NC3CCCC3)n2c1`, the “hERG current change (%, negative = inhibition) at 10uM” value is on record as -54.2%. Next, `Nc1cc(C(F)(F)F)ccc1OCC1CCCO1` (centres unmarked): 6.54%; `CC(C)(C)c1ccc(S(=O)(=O)Nc2ccc3c(c2)COC3=O)cc1`: 17.3%; `Cc1nc2scc(C)n2c(=O)c1S(=O)(=O)N1CCN(c2cccc(C(F)(F)F)c2)CC1`: -3.03%. For `CNC(=S)NNC(=O)c1cccn(Cc2cccc(C(F)(F)F)c2)c1=O` the value was 22.2%; for `O=C1NC(=O)N(CCC2=CCCCC2)C(=O)/C1=C/c1cccs1`, 14.7%. For `COc1ccccc1N1CCN(CC(=O)NCCc2ccc(S(N)(=O)=O)cc2)CC1` the value was 15.8%; for `O=C(N/N=C/c1ccc(N2CCCCC2)o1)c1ccccc1[N+](=O)[O-]`, 11.6%.

Take `Cc1ccc(C(=O)Oc2ccccc2C(=O)N2CCOCC2)cc1`: the “hERG current change (%, negative = inhibition) at 10uM” value is listed as 6.81%. `O=C(c1ccc(CS(=O)c2ccccc2Cl)o1)N1CCOCC1` (centres unmarked): the “hERG current change (%, negative = inhibition) at 10uM” value is 1.49%.

`CCN(CC)CCN1C(=O)c2ccccc2NC1c1ccc(F)cc1` (centres unmarked): the “hERG current change (%, negative = inhibition) at 10uM” value is -64.3%.

As for `COC(=O)c1c(C)c2c(C)cc3ccccn3c-2c1C(=O)OC`, the “hERG current change (%, negative = inhibition) at 10uM” value is reported as -4.02%. For `O=[N+]([O-])c1ccccc1S(=O)(=O)N1CCSCC1`, the “hERG current change (%, negative = inhibition) at 10uM” value is -12.5%. With `CC1CCN(C(=O)CSCC(=O)O)CC1`, the “hERG current change (%, negative = inhibition) at 10uM” value amounted to 3.55%.

As for `Cc1csc(SCC(=O)Nc2sccc2C(N)=O)n1`, the “hERG current change (%, negative = inhibition) at 10uM” value was 14.2%.

With `CN(Cc1ccc(F)cc1)C(=O)c1cccc(S(=O)(=O)NCc2ccccc2)c1`, the “hERG current change (%, negative = inhibition) at 10uM” value was -44.1%. Next, `CCOC(=O)C1(C)C=C(Nc2ccc(OC)cc2)C(=O)N1c1ccc(OC)cc1` (centres unmarked): 25.9%; `O=C(NCCNS(=O)(=O)c1ccccc1)N1CCOCC1`: 18.3%. For `Cc1cc2cc(CCNC(=O)c3ccc(C)c([N+](=O)[O-])c3)c(=O)[nH]c2cc1C` the value was 4.59%.

As for `Cc1cc(C)nc(Nc2n[nH]c(-c3ccccc3Cl)n2)n1`, the “hERG current change (%, negative = inhibition) at 10uM” value worked out at 4.1%. For `Nc1ccc(C2(c3ccc(N)cc3)CN3CCC2CC3)cc1` the value was 5.9%; for `COC(=O)C1CCN(C(=O)c2cc(-c3ccc(Cl)s3)nc3ccccc23)CC1`, -32.8%; for `COc1ccc(-n2ncc3c(NCc4ccco4)ncnc32)cc1`, -17.8%. Next, `Cl.O=C(Nc1nc2n(n1)C(c1ccccc1)C=C(c1ccccc1)N2)c1ccco1` (centres unmarked): -16.2%; `O=C(/C=C/c1ccc(Cl)cc1)N1CCN(c2ccc([N+](=O)[O-])c(N3CCOCC3)c2)CC1`: -72.4%. With `Cc1cc(C)n(CC(=O)c2cccc(N)c2)n1`, the “hERG current change (%, negative = inhibition) at 10uM” value came out at 12.8%. Next, `CCc1ccc(C(O)(CC(C)C)C(CN2CCOCC2)c2ccccc2)cc1.Cl` (centres unmarked): -1.97%; `CN(C)c1ccc(C(CNC(=O)c2ccccc2F)c2c[nH]c3ccccc23)cc1` (centres unmarked): -8.6%; `Clc1ccc(C2=Nn3c(Cn4nnc5ccccc54)nnc3SC2)cc1`: 21.3%. Next, `COc1ccc(Cn2c(CCC(=O)NCc3ccco3)nc3cccnc32)cc1`: -37.6%; `c1ccn2cc(-c3ccc4c(c3)OCCO4)nc2c1`: 1.08%; `Oc1c(N=NC(=S)Nc2ccccc2F)c2ccccc2n1Cc1ccccc1`: 23.8%. Consider `COc1ccc2cc3[n+](cc2c1OC)CCc1cc2c(cc1-3)OCO2.Cl`, for which the “hERG current change (%, negative = inhibition) at 10uM” value came to 3.74%. With `O=C(Oc1ccc(Cl)cc1)N1CCOCC1`, the “hERG current change (%, negative = inhibition) at 10uM” value stood at 13.5%. For `Cc1ccc(S(=O)(=O)CCC(=O)OCC(=O)Nc2ncc(Cl)cc2Cl)cc1` the value was -16.2%; for `CC1CCCN(C(=O)CNC(=O)c2ccco2)C1` (centres unmarked), 28.4%; for `COc1ccc(NC(=O)n2ncc3cc(Cl)ccc32)cc1OC`, 21.3%.

Take `CCOC(=O)CC1C(=O)NCCN1S(=O)(=O)c1ccc(Cl)cc1` (centres unmarked): the “hERG current change (%, negative = inhibition) at 10uM” value is given as -5.38%. For the compound `CCCc1cc(=O)[nH]c(SCC(=O)Nc2ncc(S(=O)(=O)c3ccc([N+](=O)[O-])cc3)s2)n1`, the “hERG current change (%, negative = inhibition) at 10uM” value is reported as 8.56%. Next, `CCCCNc1nc(NC)nc(Cl)c1SC`: 7.51%; `CC(C)n1c(C(=O)OCC(=O)NCc2ccc3c(c2)OCO3)cc2sccc21`: 18.3%.

As for `CCc1ccc(N(CC(=O)NCc2ccco2)C(=O)CCC(=O)Nc2nccs2)cc1`, the “hERG current change (%, negative = inhibition) at 10uM” value is given as 2.1%. Consider `C[N+](C)(C)CCOP(=O)([O-])OP(=O)([O-])OC[C@H]1O[C@@H](n2ccc(N)nc2=O)[C@H](O)[C@@H]1O.[Na+]`, for which the “hERG current change (%, negative = inhibition) at 10uM” value is given as 8.86%. As for `COC(=O)c1ccc(NC(=O)c2ccc(NC(=O)c3ccco3)cc2)cc1`, the “hERG current change (%, negative = inhibition) at 10uM” value was determined as 18.4%. For `O=C1CN(C(=O)NCCC(=O)NC2CCCCC2)c2ccccc2N1` the value was -2.24%.

In the case of `CN1CCN(C(=O)/C=C/c2ccc(Cl)cc2)CC1`, the “hERG current change (%, negative = inhibition) at 10uM” value is recorded as -44.8%.

`O=C(CSc1nc2cc(Cl)ccc2s1)c1ccco1`: the “hERG current change (%, negative = inhibition) at 10uM” value is 2.2%.

For the compound `COc1cccc(C2=CC(=O)CC(C)(C)C2)c1OC`, the “hERG current change (%, negative = inhibition) at 10uM” value is -4.25%. For the compound `COc1ccc2[nH]c(=O)c(CN(Cc3cccs3)C(=S)NCC3CCCO3)cc2c1` (centres unmarked), the “hERG current change (%, negative = inhibition) at 10uM” value is on record as -6.12%.

In the case of `CCc1ccc(NC(=O)N(CCN2CCOCC2)Cc2ccc3c(c2)CCCN3CC)cc1`, the “hERG current change (%, negative = inhibition) at 10uM” value was -31.7%. For `Cc1cccc([C@@H]2[C@@H]3C(=O)N(Cc4ccccc4)C(=O)[C@@H]3[C@]3(Cc4ccccc4)C(=O)N(c4ccc(C(F)(F)F)cc4)C(=O)N23)c1` the value was 9.93%. Next, `CCOc1ccc(NC(=O)C2CCCN2C(=O)NC2CCCCC2)cc1` (centres unmarked): -14%. For `COc1ccc(S(=O)(=O)N2CCCC(C(=O)NC3CC3)C2)cc1Cl` (centres unmarked), the “hERG current change (%, negative = inhibition) at 10uM” value turned out to be 1.86%.

As to `CCCCc1nc(N2CCNCC2)c(C#N)c2c1CSC(C)(C)C2`, the “hERG current change (%, negative = inhibition) at 10uM” value is on record as -64.7%.

For the compound `COc1ccc(Cl)cc1S(=O)(=O)N1CCCC(C(=O)N2CCCC2)C1` (centres unmarked), the “hERG current change (%, negative = inhibition) at 10uM” value is -5.2%. In the case of `Cc1noc(C)c1S(=O)(=O)N(CC(=O)NC1CCCC1)c1ccc(C(C)C)cc1`, the “hERG current change (%, negative = inhibition) at 10uM” value is 10.2%. Turning to `COC(=O)c1c(NC(=O)c2ccco2)sc(C(=O)N(C)C)c1C`, the “hERG current change (%, negative = inhibition) at 10uM” value is on record as -11.1%.

As to `CC(C)n1c(NCc2ccccc2O)nc2ccccc21`, the “hERG current change (%, negative = inhibition) at 10uM” value was -12.2%. Next, `CCCNc1nc2c(c(=O)[nH]c(=O)n2C)n1CCC(C)C`: -0.274%; `OC(CN1CCOCC1)Cn1c(-c2cccc(Cl)c2)nc2ccccc21` (centres unmarked): -21.3%; `Cc1nc2ccccc2c(=O)n1/N=C/c1ccc([N+](=O)[O-])o1`: -53.3%. On to `CC1CCN(S(=O)(=O)c2ccc(NC(=O)c3ccco3)cc2)CC1`, for which the “hERG current change (%, negative = inhibition) at 10uM” value is recorded as -10.7%.

On to `Cc1ccnc(SCCn2c(N3CC(C)OC(C)C3)nc3c2c(=O)n(C)c(=O)n3C)n1` (centres unmarked), for which the “hERG current change (%, negative = inhibition) at 10uM” value is on record as -8.3%. For `O=C1CC(C(=O)Nc2ccc(Cl)c(Cl)c2)S/C(=N\N=C\c2ccco2)N1` (centres unmarked) the value was 2.7%. As for `CC(OC(=O)c1cc2ccccc2cc1O)C(=O)Nc1ccc(S(N)(=O)=O)cc1` (centres unmarked), the “hERG current change (%, negative = inhibition) at 10uM” value is given as -11.8%.

Turning to `Cc1noc(C)c1S(=O)(=O)Nc1ccc(C(=O)N2CCC(C)CC2)cc1`, the “hERG current change (%, negative = inhibition) at 10uM” value is recorded as -4.35%. Turning to `COCCN1CCn2c(nc3cc([N+](=O)[O-])ccc32)C1`, the “hERG current change (%, negative = inhibition) at 10uM” value is recorded as -13.2%. Next, `C=CCn1c(SCC(=O)c2c(N)n(C)c(=O)n(C)c2=O)nc2sc(C)c(C)c2c1=O`: -5%; `CCCNC(=O)c1noc2c1CCc1ccccc1-2`: -4.93%. Consider `COc1ccc(OC)c(Nc2nc(-c3cccc([N+](=O)[O-])c3)nc3ccccc23)c1`, for which the “hERG current change (%, negative = inhibition) at 10uM” value was -0.923%.

Take `COc1ccc(Cn2c(=N)c(C(=O)NCC3CCCO3)cc3c(=O)n4ccccc4nc32)cc1` (centres unmarked): the “hERG current change (%, negative = inhibition) at 10uM” value was -82.2%. Next, `Cc1ccc(S(=O)(=O)N2CCCCC2)cc1NC(=O)COC(=O)Cc1ccc(Cl)cc1`: -27.8%.

Take `COc1ccc(-c2c(C)nn3c(N4CCC(C(=O)NCCN(C)C)CC4)cc(C)nc23)cc1OC`: the “hERG current change (%, negative = inhibition) at 10uM” value was -0.0367%. For `CCS(=O)(=O)c1ccc2c(c1)N(S(C)(=O)=O)CC(C(=O)NCCOC)O2` (centres unmarked) the value was 2.19%; for `O=C(NCc1ccco1)c1cc(NS(=O)(=O)c2cccc([N+](=O)[O-])c2)ccc1O`, 5.88%. For `CCN(c1cccc(C)c1)S(=O)(=O)c1c(C)[nH]c(=O)[nH]c1=O` the value was 5.02%; for `Nc1ncnc2c1nc(SCCO)n2Cc1ccccc1`, 12.5%.
